Consider five compounds from PubChem BioAssay (NCI).

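Exposure lasted 48 hours, with cells grown in 96-well plates and compounds tested at five concentrations. The concentration for 50% growth inhibition is given as GI50.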 Not every entry of the source has a single result; some have several. Only these are listed. An entry can have further records. For some of these results: Values that stand side by side are repeats (runs, samples, wells, individuals or studies). A tag in brackets gives the origin of a value. Letters hold for one entry only.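 Definition used: TGI = concentration required for complete inhibition of growth.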 For some of these results: The tests behind the records often covered other concentration ranges, not given here; a value can be the end of its range.

Test in all cases: inhibition of tumour cell growth, NCI panel, 48 h
For experiment [1], the system named is M19-MEL melanoma.
The test system of experiment [2] is COLO 205 colon.
In experiment [3] the test system is NCI-H522 lung.
For experiment [4], the system named is HL-60(TB) leukemia.
In experiment [5] the test system is MOLT-4 leukemia.
Experiment [6] has as its system CAKI-1 renal.
Experiment [7] relates to DLD-1 colon.
Experiment [8] deals with LXFL 529 NSCLC.
For experiment [9], the system named is DMS 114 small cell lung.
The test system of experiment [10] is RPMI-8226 leukemia.
In experiment [11] the test system is NCI/ADR-RES ovarian.
The test system of experiment [12] is OVCAR-8 ovarian.
Experiment [13] deals with U251 CNS.
In experiment [14] the test system is SK-MEL-2 melanoma.
Experiment [15] concerns NCI-H23 lung.
In experiment [16] the test system is NCI-H460 lung.
Experiment [17] deals with SN12C renal.
Experiment [18] concerns OVCAR-5 ovarian.
Experiment [19] relates to XF 498 CNS.
The subject of experiment [20] is OVCAR-4 ovarian.
In experiment [21] the test system is SW-620 colon.
Experiment [22] relates to UO-31 renal.
Experiment [23] has as its system HOP-92 NSCLC.
For experiment [24], the system named is HCT-15 colon.
The subject of experiment [25] is A549 NSCLC.
The test system of experiment [26] is SF-539 CNS.
Experiment [27] deals with BT-549 breast.
The subject of experiment [28] is SNB-75 CNS.
The test system of experiment [29] is CCRF-CEM leukemia.
The test system of experiment [30] is HS 578T breast.
Experiment [31] concerns HOP-62 NSCLC.
Experiment [32] has as its system UACC-62 melanoma.
The test system of experiment [33] is SF-268 CNS.
Experiment [34] has as its system ACHN renal.
For experiment [35], the system named is UACC-257 melanoma.
Experiment [36] deals with LOX IMVI melanoma.
In experiment [37] the test system is PC-3 prostate.
Experiment [38] concerns NCI-H226 lung.

`O=C1C(CN(Cc2ccccc2)Cc2ccccc2)CCCC1CN(Cc1ccccc1)Cc1ccccc1` (stereo not given): the GI50 in experiment [1] is 7.11 µM [sample A, mean of 2 tests] and > 100 µM [sample B, 1 test]; in experiment [2] it was 2.66 µM [sample A, mean of 2 tests] and > 84.2 µM [sample B, mean of 3 tests]; in [3] it was 194 nM [sample A, mean of 2 tests] and > 100 µM [sample B, mean of 3 tests]; in experiment [4], 5.71 µM [sample A, mean of 3 tests] and > 96.4 µM [sample B, mean of 3 tests]; in experiment [5], 8.14 µM [sample A, mean of 2 tests] and > 100 µM [sample B, mean of 3 tests]; in experiment [6], 6 µM [sample A, mean of 2 tests] and > 100 µM [sample B, mean of 2 tests]. Further, the GI50 in experiment [7] is 5.15 µM [sample A, mean of 2 tests] and > 100 µM [sample B, 1 test]; in experiment [8], 5.23 µM [sample A, mean of 2 tests] and > 100 µM [sample B, 1 test]; in [9], 5.31 µM [sample A, mean of 2 tests] and > 100 µM [sample B, 1 test]; in experiment [10], 2.09 µM [sample A, mean of 3 tests] and > 92.5 µM [sample B, mean of 3 tests]. Also, the TGI in experiment [2] was 7.72 µM [sample A, mean of 2 tests] and > 100 µM [sample B, mean of 3 tests]; in experiment [3] it was 471 nM [sample A, mean of 2 tests] and > 100 µM [sample B, mean of 3 tests]; in [8], 9.61 µM [sample A, mean of 2 tests] and > 100 µM [sample B, 1 test].
Consider `C=C1CCCC(C)(C)[C@@H]1CC/C(C)=C/Cn1c2cccc(=O)c-2nc2ccccc21`, for which the TGI in [11] was > 100 µM and 2.23 µM; in experiment [1], > 100 µM and 2.68 µM; in experiment [12], > 100 µM and 4.32 µM; in experiment [2], > 100 µM and 3.94 µM; in [13] it was 56.9 µM and 3.11 µM; in experiment [14] it was > 100 µM and 6.11 µM. Moreover, the TGI in experiment [7] was 56.8 µM and 2.64 µM; in experiment [15] it was > 100 µM and 3.15 µM; in experiment [16], 55 µM and 2.53 µM; in experiment [17], > 100 µM and 3.25 µM; in [18] it was 92.3 µM and 8.03 µM; in experiment [19], > 100 µM and 7.54 µM. The TGI in [20] is > 100 µM and 4.09 µM; in experiment [21], > 100 µM and 3.18 µM; in experiment [22], > 100 µM and 8.99 µM; in experiment [23], > 100 µM and 7.19 µM; in [24] it was > 100 µM and 2.43 µM; in [25], > 100 µM and 3.52 µM.
Turning to `Nc1ccn(C2OC(CO[P+](=O)OC3C(CO[P+](=O)OC4C(CO[P+](=O)OC5C(CO[P+](=O)OC6C(CO[P+](=O)OC7C(CO[P+](=O)OC8C(CO[P+](=O)OC9C(CO[P+](=O)OC%10C(CO[P+](=O)OC%11C(CO)OC(n%12ccc(N)nc%12=O)C%11(F)F)OC(n%11ccc(N)nc%11=O)C%10(F)F)OC(n%10ccc(N)nc%10=O)C9(F)F)OC(n9ccc(N)nc9=O)C8(F)F)OC(n8ccc(N)nc8=O)C7(F)F)OC(n7ccc(N)nc7=O)C6(F)F)OC(n6ccc(N)nc6=O)C5(F)F)OC(n5ccc(N)nc5=O)C4(F)F)OC(n4ccc(N)nc4=O)C3(F)F)C(O)C2(F)F)c(=O)n1` (stereo not given), the TGI is 9.81 µM and > 100 µM in [12]; 3.82 µM and > 100 µM in [26]; 1.26 µM and 33.3 nM in experiment [5]; 8.79 µM and > 100 µM in experiment [14]; 6.04 µM and > 100 µM in experiment [6]; 3.09 µM and > 100 µM in experiment [27]. In addition, the TGI in experiment [15] was 358 nM and > 100 µM; in experiment [16], 2.65 µM and > 100 µM; in experiment [17], 637 nM and 18.7 µM; in experiment [28], 891 nM and 44 µM; in [29], 636 nM and 20 µM; in experiment [30], 9.07 µM and > 100 µM. Besides, the TGI in [31] was 7.8 µM and 94.5 µM; in experiment [22], 1.28 µM and > 100 µM; in experiment [32] it was 1.9 µM and 53.4 nM; in [33] it was 636 nM and > 100 µM; in [34] it was 5.43 µM and > 100 µM; in [35], 5.27 µM and > 100 µM. Moreover, the TGI in [24] was 4.46 µM and > 100 µM; in experiment [10], 4.11 µM and > 100 µM.
Regarding `O=S(=O)(c1ccc2c(c1)C(=NO)c1cc(S(=O)(=O)N3CCCCC3)ccc1-2)N1CCCCC1`, in experiment [36], the GI50 is 177 nM [sample A, 1 test] and 11.5 nM [sample B, mean of 2 tests]; the TGI was 342 nM [sample A, 1 test] and 25.4 nM [sample B, mean of 2 tests].
With `CCNC(=O)Nc1ccc(-c2nc3c(c(N4CCOC[C@@H]4C)n2)CCN(C2COC2)C3)cc1`, the TGI in [37] is > 100 µM [sample A, mean of 2 tests] and 4.98 µM [sample B, mean of 2 tests]; in experiment [38], > 36.9 µM [sample A, mean of 2 tests] and 1.37 µM [sample B, mean of 2 tests].
